Measured values reported in paper PMC4336329 (PLoS ONE, 2015).
Out of some 310,000 compounds screened, about 14,000 (4.5%) showed an effect of 50% or more. Effects have a minus sign here. This is one part of the list.

biological target: human ether-à-go-go-related gene (hERG) potassium channel (human, UniProt Q12809); assay: primary screen, population patch clamp on CHO cells stably expressing hERG
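Further: peak tail current of the secondary pulse compared with the same well before compound.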

Sequence of human ether-à-go-go-related gene (hERG) potassium channel (Q12809 whole entry, looked up): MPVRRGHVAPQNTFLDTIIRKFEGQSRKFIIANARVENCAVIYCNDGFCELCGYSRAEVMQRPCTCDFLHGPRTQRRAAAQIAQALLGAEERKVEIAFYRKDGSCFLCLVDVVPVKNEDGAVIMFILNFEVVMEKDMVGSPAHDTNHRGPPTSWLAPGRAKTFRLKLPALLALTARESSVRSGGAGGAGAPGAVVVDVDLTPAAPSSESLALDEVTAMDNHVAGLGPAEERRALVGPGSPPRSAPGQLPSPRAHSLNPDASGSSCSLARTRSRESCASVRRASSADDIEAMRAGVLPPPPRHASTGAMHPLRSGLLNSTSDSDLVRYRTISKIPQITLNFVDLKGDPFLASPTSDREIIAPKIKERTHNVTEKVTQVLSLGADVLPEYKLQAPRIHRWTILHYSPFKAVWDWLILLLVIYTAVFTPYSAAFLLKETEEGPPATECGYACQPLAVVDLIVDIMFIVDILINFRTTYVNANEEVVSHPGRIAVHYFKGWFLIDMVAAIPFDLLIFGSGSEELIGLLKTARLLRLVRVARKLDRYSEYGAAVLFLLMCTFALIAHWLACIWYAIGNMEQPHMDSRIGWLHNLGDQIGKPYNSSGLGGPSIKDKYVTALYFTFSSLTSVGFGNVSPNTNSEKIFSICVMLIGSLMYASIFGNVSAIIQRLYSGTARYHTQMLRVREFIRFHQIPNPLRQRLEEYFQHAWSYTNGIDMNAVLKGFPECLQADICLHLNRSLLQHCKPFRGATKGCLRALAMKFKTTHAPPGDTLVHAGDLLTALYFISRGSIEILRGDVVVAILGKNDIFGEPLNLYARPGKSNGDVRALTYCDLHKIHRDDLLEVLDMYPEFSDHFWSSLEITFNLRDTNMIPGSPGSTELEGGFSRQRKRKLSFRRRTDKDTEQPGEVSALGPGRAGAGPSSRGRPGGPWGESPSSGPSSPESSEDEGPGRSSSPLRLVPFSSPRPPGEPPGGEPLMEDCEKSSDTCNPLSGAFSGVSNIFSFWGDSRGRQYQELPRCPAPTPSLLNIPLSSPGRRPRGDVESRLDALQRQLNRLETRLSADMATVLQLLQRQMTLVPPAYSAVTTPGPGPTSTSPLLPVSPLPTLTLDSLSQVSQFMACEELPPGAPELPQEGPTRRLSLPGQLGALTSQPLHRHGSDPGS

Going from `COc1cccc(C(=O)NCCS(=O)(=O)NCc2ccco2)c1` to `COc1cccc(CNC(=S)Nc2cc(OC)ccc2OC)c1`, the “hERG current change (%, negative = inhibition) at 10uM” value rises from -10.9% to 12.5%.

Going from `N#Cc1cccc(NC(=O)COC(=O)c2ccc3c(=O)n4c(nc3c2)CCC4)c1` to `N#Cc1ccc(C(=O)CN2CCN(c3ccccc3)CC2)cc1`, the “hERG current change (%, negative = inhibition) at 10uM” value falls from 9.95% to -42.8%.

Going from `Cl.O=C(CN1CCCC1)NCC12CC3CC(CC(C3)C1)C2` to `COc1cccc(OC)c1C(=O)NCC12CC3CC(C1)CC(CNC(=O)c1c(OC)cccc1OC)(C3)C2`, the “hERG current change (%, negative = inhibition) at 10uM” value rises from -4.77% to 5.4%.

Compared with `Cc1cc(=O)n(-c2ccc(C(=O)O)cc2)[nH]1`, `Cc1ccccc1CN1CCN(C(C)C(=O)NNC(=O)c2ccc(F)cc2)CC1` (stereo not drawn) is lower in “hERG current change (%, negative = inhibition) at 10uM” value: 20.1% for the first, -8.62% for the second.

Going from `O=C(COC(=O)C1CCN(C(=O)c2ccc(Cl)cc2)CC1)NC1CCS(=O)(=O)C1` (stereo not drawn) to `O=C(NCC1CCN(C(=O)c2cccc([N+](=O)[O-])c2)CC1)c1cccc([N+](=O)[O-])c1`, the “hERG current change (%, negative = inhibition) at 10uM” value falls from 26.9% to -53.5%.

First: COc1ccc(C(=O)Oc2ccc(F)cc2C(=O)/C=C/c2ccc(OC)c(OC)c2)cc1
Second: COc1cc(OC)c(OC)cc1CNCCc1ccc(F)cc1.O=C(O)C(=O)O
The “hERG current change (%, negative = inhibition) at 10uM” value of the first is higher: -7.85% for the first, -11% for the second.

Compared with `Cn1c(/C(C#N)=C(\O)c2ccc([N+](=O)[O-])cc2)nc2ccccc21`, `C/C(=N\NC(=O)c1ccc(O)cc1)c1ccc2c(c1)Nc1ccccc1S2` is lower in “hERG current change (%, negative = inhibition) at 10uM” value: 13% for the first, -15.7% for the second.

Going from `COC(=O)/C(=C/N(C)C)C(=O)N1CCN(c2ccc(Cl)c(Cl)c2)CC1` to `COc1ccc(N2C(=O)CCC(C(=O)N3CCCCCC3)C2c2ccc(OC)c(OC)c2)cc1` (stereo not drawn), the “hERG current change (%, negative = inhibition) at 10uM” value rises from -25% to 4.96%.

Going from `COc1ccc(CNS(=O)(=O)c2cc(-c3cc(C)no3)ccc2C)cc1OC` to `COc1ccc(NS(=O)(=O)c2ccc(C)c(C(=O)N(C)Cc3ccc(OC)cc3OC)c2)cc1`, the “hERG current change (%, negative = inhibition) at 10uM” value falls from -12.2% to -39.6%.

Compared with `Cc1cccc(C)c1NC(=O)c1cccc2c1-c1ccccc1C2=O`, `Cc1cccc(/N=C2/NC(=O)C(Cc3ccccc3)S2)n1` (stereo not drawn) is lower in “hERG current change (%, negative = inhibition) at 10uM” value: 3.11% for the first, -0.746% for the second.

First: CCSc1nnc(-c2cc(Br)ccc2N=Cc2c(C)[nH]n(-c3ccccc3)c2=O)c(=O)[nH]1
Second: CCN(CC)C(=O)CSc1nnc(-c2c[nH]c3ccccc23)o1
The “hERG current change (%, negative = inhibition) at 10uM” value of the first is lower: -36.1% for the first, 11.1% for the second.

Compared with `CC(=O)Nc1ccccc1O`, `N#C/C(=C/N1CCOCC1)c1ccccc1` is lower in “hERG current change (%, negative = inhibition) at 10uM” value: 14.3% for the first, -13.6% for the second.
